Measurements from PubChem BioAssay AID686979 (National Center for Advancing Translational Sciences (NCATS), 2013).
“And” between values parts separate entries of the source, which are not always exact repeats. Equal entries are not always repeated. About 50,000 (12%) of roughly 420,000 compounds were called active. Inconclusive means that the source gave no clear call. Such entries were picked first, then a sample of the others. Calls follow the shape of the dose curve; as a rule, active = well fitted inhibition curve with a large enough effect; inconclusive = small, poorly fitted or top-dose-only effect; inactive = flat fitted curve, though single readings scatter. Potencies of inconclusive entries are doubtful fits and often do not repeat.

experiment: qHTS for Inhibitors of human tyrosyl-DNA phosphodiesterase 1 (TDP1): qHTS in cells in presence of CPT; settings: chicken DT40 Tdp1-/-;hTDP1 cells + 20 nM CPT, ATP luminescence, 48 h; activity change, negative = growth inhibition: at 46.2 µM (top of the series) unless noted; also: nearly all actives have a fitted effect of over 55% in size
Summary of the method: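 Chicken DT40 Tdp1-/- cells stably complemented with human TDP1 were seeded at 400 cells/well in medium containing 20 nM camptothecin, exposed to pin-transferred compounds, and grown at 37 °C for at least 48 hr. Viability was read as ATP luminescence.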
% is scaled to controls: 0 for no effect and ±100 for the full control effect; potency is read from the fitted curve at half-maximal effect; tags tell the direction and shape of the fitted curve.

Row | SMILES | Potency | activity change, negative = growth inhibition
1 | Cn1cccc1/C=N/n1c(-c2ccc(Cl)cc2)n[nH]c1=S | inconclusive: 18.4 µM [inhibitor, single point] | –
2 | O=C(CC(c1ccccc1)c1ccco1)Nc1nccs1 (stereo not given) | active: 25.9 µM | –
3 | COc1ccccc1C(C)Nc1nc(-c2cccnc2)nc2ccccc12 (stereo not given) | active: 18.4 µM | –
4 | O=C(CN1CCN(c2ccccn2)CC1)N(c1ccccc1)c1ccc2ccccc2c1 | active: 16.4 µM | –
5 | COc1ccc(-c2n[nH]c(C)c2-c2cnn(-c3ccccc3)c2)c(O)c1C | – | inactive: -15.2%
6 | CC1CCN(S(=O)(=O)c2cc(C(=O)N3CCN(c4ncccn4)CC3)ccc2Br)CC1 | inconclusive: 29.1 µM [inhibitor, single point] | –
7 | CCOc1cc(C(=O)N/N=C/c2ccsc2)cc(OCC)c1OCC | inconclusive: 29.1 µM [inhibitor, single point] | –
8 | CCOc1cc(N2CCOCC2)c(OCC)cc1NC(=O)c1ccc(S(=O)(=O)N2CC(C)OC(C)C2)cc1 (stereo not given) | inconclusive: 29.1 µM [inhibitor, single point] | –
9 | Cc1ccc(Nc2cc(C)nc(NCc3ccccc3)n2)cc1 | active: 2.59 µM | –
10 | CCOc1ccc(CNC(=O)c2cc3cc(S(=O)(=O)N4CCCCC4)ccc3n2C)cc1 | active: 18.4 µM | –
11 | COc1cc(CN(C(=S)NCC(=O)NC2CCCC2)C2CCCC2)cc(OC)c1OC | inconclusive: 29.1 µM [inhibitor, single point] | –
12 | Cc1ccccc1/C(N)=N/O | – | inactive: -5.21%
13 | Cn1cnnc1SC1c2cccc3cccc(c23)C1NS(=O)(=O)c1ccccc1 (stereo not given) | – | inactive: 4.94%
14 | Cc1ccc(Cl)cc1-n1c(SCC(=O)NCc2ccccc2)nc2n[nH]c(C)c2c1=N | inconclusive: 16.4 µM [inhibitor, partial curve] | –
15 | CCn1cc(C(=O)OCC(=O)Nc2cccc(S(=O)(=O)N3CCOCC3)c2)c(=O)c2ccc(C)nc21 | inconclusive: 0.0065 µM [inhibitor, full curve, poor fit] | –
16 | COC(=O)C1=CN(CCCN2CCCC2=O)C=C(C(=O)OC)C1c1cccs1 | – | inactive: 2.84%
17 | CSCCC(NC(=O)COc1ccccc1)C(=O)N1CCCCCC1 (stereo not given) | – | inactive: -24%
18 | CCCCNC(=O)c1nn2c(C(F)(F)F)cc(-c3ccccc3)nc2c1Br | inconclusive: 29.1 µM [inhibitor, single point] | –
19 | CC(O)(c1cccc(F)c1)c1nc(-c2csc3ccccc23)cs1 (stereo not given) | inconclusive: 25.9 µM [inhibitor, single point] | –
20 | COc1ccc(C(=O)NCCc2csc(-c3ccc(Cl)cc3)n2)c(OC)c1 | inconclusive: 20.6 µM [inhibitor, single point] | –
21 | FC(F)(F)c1cccc(-c2nnc(-c3ccccc3)c(N3CCOCC3)n2)c1 | active: 18.4 µM | –
22 | Cc1nn(-c2ccccc2)c2sc(C(=O)c3c(N)n(C)c(=O)n(C)c3=O)cc12 | inconclusive: 29.1 µM [inhibitor, single point] | –
23 | COc1ccc2c3c(cccc13)C(=O)CC2 | active: 18.4 µM | –
24 | COc1ccc(C2OC(=O)CC2C(=O)N2CCN(c3cc(Cl)ccc3C)CC2)cc1OC (stereo not given) | active: 20.6 µM | –

Row | SMILES | Potency | activity change, negative = growth inhibition
25 | CC(C)(C)c1cc(Br)c(O)c(N=Nc2ccc(S(=O)(=O)N3CCOCC3)cc2)c1 | inconclusive: 18.4 µM [inhibitor, single point] | –
26 | Brc1ccc(-c2cn3c(n2)CCc2ccc4cccnc4c2-3)cc1 | – | inactive: 15.7%
27 | COc1ccc(C(=O)c2sc3nc(-c4ccccc4)ccc3c2N)cc1OC | active: 16.4 µM | –
28 | CCOc1ccc2nc(N/C(N)=N/C(=S)Nc3cccc(OC)c3)nc(C)c2c1 | inconclusive: 29.1 µM [inhibitor, single point] | –
29 | CC(=O)Nc1c(C)nn(-c2ccccc2)c1N1CCC(C(=O)Nc2ccccc2C(F)(F)F)CC1 | – | inactive: -17.5%
30 | O=C(Oc1oc(-c2ccco2)nc1C=Nc1ccccc1)c1ccco1 | active: 3.66 µM | –
31 | CC(C)C(NC(=O)c1ccoc1)c1nnc2n1CCN(Cc1ccc3c(c1)Cc1ccccc1-3)CC2 (stereo not given) | inconclusive: 20.6 µM [inhibitor, single point] | –
32 | COc1ccc(/C=C/C(=O)Nc2ccc(C)cc2)cc1S(=O)(=O)N1CCOCC1 | – | inconclusive: -32.1% [inhibitor]
33 | CCOC(=O)c1ccc(NC(=O)c2nc[nH]c2C(=O)NC[C@H](C)O)cc1 | – | inactive: -8.53%
34 | CCOC(=O)C1CCCN(C(=S)Nc2ccc(Nc3ccccc3)cc2)C1 (stereo not given) | inconclusive: 18.4 µM [inhibitor, single point] | –
35 | CCN1CCc2nc3sc(C(=O)Nc4ccccc4OC(F)(F)F)c(N)c3cc2C1 | active: 16.4 µM | –
36 | Cc1ccc(S(=O)(=O)Nc2ccc3cn[nH]c3c2)cc1 | – | inactive: -1.96%
37 | COc1ccc(CCNC(=O)C2CCN(S(=O)(=O)c3cccc4nsnc34)CC2)cc1OC | – | inactive: -26%
38 | Cc1cc(C)c(NC(=O)CSC2=Nc3ccccc3C3=NC(CC(=O)NCc4cccs4)C(=O)N23)c(C)c1 (stereo not given) | inconclusive: 25.9 µM [inhibitor, single point] | –
39 | CC(C)c1ccc2c(c1)c(SC(C)(C)C)c(CC(C)(C)C(=O)O)n2Cc1ccc(Cl)cc1 | inconclusive: 13.3 µM [inhibitor, single point] and inconclusive: 23.1 µM [inhibitor, single point] | –
40 | CC(=O)Oc1ccc2nc(-c3ccco3)oc(=O)c2c1 | inconclusive: 29.1 µM [inhibitor, single point] | –
41 | CCOC(=O)N1CCN(S(=O)(=O)N2CCCC(C(=O)NCc3cc(Br)ccc3OC)C2)CC1 (stereo not given) | active: 18.4 µM | –
42 | CC(C)COc1ccc(-c2nn(-c3ccccc3)cc2CO)cc1 | active: 20.6 µM | –
43 | COCCn1c(=S)[nH]c2cc(C(=O)NCCc3ccccc3)ccc2c1=O | – | inactive: 15.3%
44 | CC1CCCCN1C(=O)CSc1nc2ccsc2c(=O)n1Cc1ccccn1 (stereo not given) | – | inconclusive: -34.5% [inhibitor]
45 | O=C(OCC(=O)N1CCOCC1)c1cncc(Br)c1 | – | inactive: 3.59%
46 | Cc1cccn2c(=O)c(C(=O)NC(C)c3ccccc3)c(O)nc12 (stereo not given) | active: 18.4 µM | –
47 | CCOc1ccc(Nc2oc(/C=C/c3ccc(OC)c(OC)c3)nc2C#N)cc1 | inconclusive: 29.1 µM [inhibitor, single point] | –
48 | COc1ccc(CNc2oc(/C=C/c3cc(OC)c(OC)c(OC)c3)nc2C#N)cc1 | inconclusive: 16.4 µM [inhibitor, single point] | –

Row | SMILES | Potency | activity change, negative = growth inhibition
49 | O=C(Cn1c(-c2cccs2)cc2cc(F)ccc21)N1CCN(c2ccccc2)CC1 | inconclusive: 29.1 µM [inhibitor, single point] | –
50 | CC(C)NC(=S)N/N=C/c1c[nH]c2ccccc12 | active: 4.61 µM | –
51 | COc1ccc(C)cc1-n1nnc(S(=O)(=O)c2ccc(C)cc2)c1C | inconclusive: 16.4 µM [inhibitor, single point] | –
52 | COc1ccc(OC)c(C2C3=C(COC3=O)Nc3cc4c(cc32)OCO4)c1 (stereo not given) | active: 0.164 µM | –
53 | COc1ccccc1CCC(=O)Nc1ccc2c(c1)c(=O)n(C)n2Cc1ccc(F)cc1 | active: 4.61 µM | –
54 | CN(C)CCCNC(=S)N(Cc1cccs1)Cc1cc2cc3c(cc2[nH]c1=O)OCCO3 | inconclusive: 18.4 µM [inhibitor, partial curve] | –
55 | COc1ccc(NC(=O)c2ccc(COc3ccc(C)cc3)o2)cc1 | inconclusive: 29.1 µM [inhibitor, single point] | –
56 | CN(Cc1ccccc1)C(=O)c1[nH]cnc1C(=O)NCc1ccc(CNC(=O)OC(C)(C)C)cc1 | inconclusive: 18.4 µM [inhibitor, single point] | –
57 | Cc1cccc(C(=O)N2CCc3cc(-c4csc(NC(=O)CN5CCCC5)n4)ccc32)c1 | inconclusive: 20.6 µM [inhibitor, single point] | –
58 | CN1OC[C@@H]2CN(C(=O)CCc3ccccc3)[C@H](c3cccc(-c4ccc(C#N)cc4)c3)C[C@@H]21 | inconclusive: 16.4 µM [inhibitor, partial curve, poor fit] | –
59 | Cc1c(-c2ccccc2)sc(Br)c1C(=O)N1CCOCC1 | inconclusive: 35.5 µM [inhibitor, single point] | –
60 | O=C(Nc1ccc2c(c1)OCO2)C1Cc2c(-c3cccnc3)ccnc2O1 (stereo not given) | – | inactive: -23.3%
61 | CCCCOc1ccc(C(=O)NCC(=O)NNC(=O)c2ccco2)cc1 | – | inactive: 7.53%
62 | O=S(=O)(c1ccc(OCC(O)CN2CCN(c3ccccc3)CC2)cc1)N1CCOCC1 (stereo not given) | inconclusive: 16.4 µM [inhibitor, partial curve] | –
63 | CCOc1cc(/C=N/NC(=O)C(=O)Nc2cc(Cl)ccc2C)ccc1O | inconclusive: 32.6 µM [inhibitor, single point] | –
64 | CC(C)CCNC(=O)c1ccc(CSCc2cccc(F)c2)o1 | inconclusive: 13 µM [inhibitor, partial curve] | –
65 | COc1cccc(-c2cnc(C(O)c3c(C)cccc3C)[nH]2)c1 (stereo not given) | inconclusive: 29.1 µM [inhibitor, single point] | –
66 | Cc1ccc(NC(=S)N/N=C/c2cccn2Cc2ccccc2F)cc1 | active: 4.61 µM | –
67 | CCOC(=O)C1=C(C)OC(N)=C(C#N)C1c1cc(SCC)oc1C (stereo not given) | inconclusive: 18.4 µM [inhibitor, single point] | –
68 | Cc1cccc(C(=O)NC(NCCc2ccccc2)C(Cl)(Cl)Cl)c1 (stereo not given) | inconclusive: 29.1 µM [inhibitor, single point] | –
69 | COc1ccc(-c2cc(C(=O)N3CCCCCC3)c3ccccc3n2)c(OC)c1 | inconclusive: 23.1 µM [inhibitor, single point] | –
70 | C=CCn1c(SCC(=O)Nc2nc(C)cs2)nnc1C(NC(=O)c1ccccc1)C(C)C (stereo not given) | inconclusive: 25.9 µM [inhibitor, single point] | –
